This is one part of the list. At the low end of the ranking, values are background and their order means little.

Consider 219 sequences from paper PMC6212790.

This assay deals with T1, GST-Rok (full length) (UniProt O34857).
T1 sequence: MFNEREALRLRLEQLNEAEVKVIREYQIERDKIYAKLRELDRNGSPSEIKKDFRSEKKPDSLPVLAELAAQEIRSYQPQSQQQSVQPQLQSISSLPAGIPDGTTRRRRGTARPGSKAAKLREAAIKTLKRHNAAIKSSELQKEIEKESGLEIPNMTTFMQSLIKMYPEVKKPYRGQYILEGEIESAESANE
Put plainly: protein binding microarray.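 Also: rank score from −0.5 (least bound) to 0.5 (best bound).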 The settings on record: Rok is a gene silencer of Bacillus subtilis; high values mean tight binding; most listed sequences are background and not binding sites; double strand, one strand shown.
ATCGCTAC displayed a binding signal of 0.032 E-score. For CCCCTAGA, the binding signal was -0.202 E-score. CCTGGTAA yielded a binding signal of -0.0716 E-score. Next, ATTCGAAA: 0.159 E-score; CACGTTAG: -0.0148 E-score. Next, GCTTTGCA: -0.149 E-score. As for CCTGATTA, the figure is 0.078 E-score. GCGATTGA: the binding signal is -0.187 E-score.

CGCGAACC registered a binding signal of -0.158 E-score. In turn, ACACCAGG returned a binding signal of -0.249 E-score. As for AAATATCC, the figure is 0.127 E-score; as for GAGCGACA, -0.158 E-score. As for GTCACCAC, the figure is -0.146 E-score. As for AGAGGCCG, the figure is -0.274 E-score. For the sequence ACGCCTGC, the binding signal was -0.26 E-score. As for CTAAATTA, the figure is 0.252 E-score; as for CCGTGATA, 0.0672 E-score; as for AGTTGATG, 0.0463 E-score. For CCCCCCAA, the binding signal is -0.272 E-score. As for ACCAGTGA, the figure is 0.0485 E-score; as for AGAGAACC, -0.0869 E-score. Next, ATGAAAGA: 0.0746 E-score. As for CTCGGCTA, the figure is -0.16 E-score. The sequence ACCAAGTA returned a binding signal of 0.237 E-score. Next, AGGTTACG: -0.0671 E-score. Take AATGTTAA: the binding signal was 0.293 E-score. Sequence CTCGTAGC displayed a binding signal of 0.000163 E-score.

In turn, TACCGAGA gave a binding signal of 0.161 E-score. As for CTTGAAGC, the figure is -0.271 E-score; as for CAGAAAGG, -0.206 E-score; as for CTGCAGAC, 0.0497 E-score. Turning to AGCGCGAC, the binding signal came out at 0.116 E-score. As for GCCACTCC, the figure is -0.293 E-score.

CTGCTCGC gave a binding signal of -0.18 E-score. As for ATCTACCG, the figure is 0.409 E-score. As for CTACATTA, the figure is 0.355 E-score. Turning to CGTCCCTA, the binding signal is -0.192 E-score. As for AATCTTAG, the figure is 0.15 E-score. Next, AAATCCTA: 0.231 E-score. As for AGCTGGAT, the figure is 0.00784 E-score. The sequence CCCGAGGG had a binding signal of -0.384 E-score. As for GACCCAGA, the figure is -0.174 E-score; as for CGCACGTA, -0.0812 E-score. Regarding CTACAAAA, the binding signal worked out at 0.0496 E-score.

ACGAATGA: the binding signal is 0.137 E-score. Next, AATATCCT: 0.102 E-score. As for ATCTTTCC, the figure is -0.0503 E-score; as for GCATGTCC, -0.0171 E-score; as for AGCTACAG, 0.222 E-score. As for ACCGCGGC, the figure is -0.192 E-score; as for CTACGTGC, -0.144 E-score. The sequence CTGTAAAA showed a binding signal of 0.0495 E-score. As for CCTTTGTC, the figure is -0.322 E-score; as for AGCTGAGG, -0.175 E-score. As for CCCTTTCC, the figure is -0.231 E-score; as for CTAAATTC, 0.251 E-score; as for CGCGGGGA, -0.238 E-score. As for GAGCCTAA, the figure is -0.0202 E-score. AACGCAAC returned a binding signal of 0.15 E-score. Next, CCAGATCC: -0.257 E-score. Next, ACTAGTGG: 0.00757 E-score. Next, AGGTACCA: 0.242 E-score; GTCAACAC: -0.0503 E-score; GTGAAGCA: -0.11 E-score. AAGAGACA: the binding signal is -0.131 E-score. As for AGGATATG, the figure is 0.0123 E-score; as for ACCCCCAA, -0.46 E-score. As for CGAATATC, the figure is 0.112 E-score. Regarding AGCAAGCC, the binding signal was -0.0687 E-score.

CCTTCGCG: the binding signal was -0.21 E-score.

Regarding ACAAGAAT, the binding signal was -0.0153 E-score.

As for AACCACAG, the binding signal is -0.226 E-score. Next, ATGCTTGA: 0.185 E-score. The sequence CAAAGCGA returned a binding signal of -0.0582 E-score.

In turn, CGGTCCGC gave a binding signal of -0.31 E-score. Next, ATTTCTCC: 0.115 E-score. As for ATGACAAC, the figure is 0.107 E-score; as for ACAATAAA, 0.114 E-score; as for GTGAATTA, 0.252 E-score.

Take GAACTACC: the binding signal came out at 0.338 E-score. In the case of CGACCTAG, the binding signal was determined as 0.171 E-score. Turning to ACGTGAAA, the binding signal amounted to 0.0502 E-score.

The sequence ATCAGCGA gave a binding signal of -0.128 E-score.

As for GAGGTCGA, the binding signal was -0.0813 E-score. Next, CCTTATAG: -0.0511 E-score; AGTCCTGG: -0.151 E-score; CAGCTACG: -0.0934 E-score. As for CCAACGCC, the binding signal was -0.245 E-score. As for ATGGAGTA, the figure is 0.126 E-score; as for GGGGGCAC, -0.426 E-score. As for CACCACTC, the figure is -0.201 E-score. Sequence CCCATACC registered a binding signal of -0.34 E-score. Take CATCAAAA: the binding signal was -0.0296 E-score. As for ACCGTCAC, the figure is -0.0834 E-score; as for ACTGACTA, 0.187 E-score. As for ACACCCTC, the figure is -0.18 E-score; as for CCACTTCA, 0.0146 E-score.

With AATAGACC, the binding signal came to 0.0588 E-score. Next, GAGATTGC: -0.0917 E-score. Next, CTACTGGA: 0.229 E-score. Next, CCGCAAGG: -0.381 E-score; CGGAGAAA: -0.0855 E-score; CAGAACCG: -0.0752 E-score.

CCTTATAA registered a binding signal of -0.0304 E-score. As for CACCTTGA, the figure is -0.15 E-score; as for CAGGTCAA, -0.139 E-score. Consider GTGACCGA, for which the binding signal was found to be 0.0907 E-score. Sequence CAATAACG had a binding signal of 0.0291 E-score. As for CTCCAGGA, the figure is -0.116 E-score; as for TAGAGTAA, 0.235 E-score. As for GCAGTTAC, the figure is 0.104 E-score.

Consider CACCCGTG, for which the binding signal was -0.184 E-score. GACAGTCC had a binding signal of -0.338 E-score. ATACACAT: the binding signal stood at 0.303 E-score. AGCGCCAA: the binding signal is -0.156 E-score.

Take CGAGGCTC: the binding signal was -0.281 E-score. Next, AGATTCGA: 0.137 E-score. As for CCTCACAG, the figure is -0.0675 E-score. As for CTCTGAAC, the figure is -0.103 E-score; as for ATGCCGCA, -0.0383 E-score; as for ATGGTCGG, 0.102 E-score. GGATCGAC showed a binding signal of -0.243 E-score.

In turn, CACTATAA showed a binding signal of 0.303 E-score. The sequence GGCCACGA returned a binding signal of -0.344 E-score. Next, CTTTGAGA: -0.257 E-score; ATTCTAGG: 0.143 E-score.

ATCCTGAA had a binding signal of -0.000652 E-score. CGAATGAA showed a binding signal of 0.0515 E-score. Next, GTGGTGTA: 0.209 E-score. As for ACGCGTAT, the figure is 0.221 E-score; as for CTTTGAGC, -0.133 E-score; as for AATACGCC, -0.109 E-score. Next, AGGGTGAA: -0.17 E-score; GGGTTTGA: -0.178 E-score. Sequence GGGTACGA registered a binding signal of -0.0749 E-score. Next, ATTGCGAG: 0.0221 E-score; GAGTCTCA: -0.171 E-score; AGTTCGAC: 0.0896 E-score.

In the case of ATACCATA, the binding signal was 0.286 E-score. As for ATGACATG, the figure is -0.00542 E-score. As for CCGGCTGC, the figure is -0.336 E-score; as for GGGCCAGA, -0.378 E-score; as for AGCGATAA, 0.03 E-score. As for GCTACTTA, the figure is 0.251 E-score; as for CCGACGAA, -0.0484 E-score; as for AGCTTGCC, -0.259 E-score.

Sequence AAAGTGTG showed a binding signal of -0.166 E-score. As for AGCAACCC, the figure is -0.196 E-score; as for CATCGCTC, -0.299 E-score; as for GCACAGAC, -0.101 E-score. Next, AGTTCCAT: 0.0525 E-score; ACCCCCCC: -0.361 E-score; ATATCGGA: 0.136 E-score. Sequence AGCTAATG came in with a binding signal of 0.112 E-score.

In turn, ATGCGGAC showed a binding signal of 0.00024 E-score. Next, GACCATTA: 0.108 E-score; AACCCAAT: 0.0726 E-score. As for ATGCACAC, the figure is -0.0398 E-score; as for ACTACCAC, 0.347 E-score.

In turn, ATCTCAGA came in with a binding signal of 0.101 E-score.

For the sequence ACACTTAA, the binding signal was -0.00518 E-score. Regarding CTAGTCCC, the binding signal is -0.11 E-score. Next, TCTTAAAA: 0.053 E-score; TGCTCTAA: -0.0409 E-score.

Regarding CTCTGTCC, the binding signal is -0.198 E-score. Sequence GTCTACGA returned a binding signal of -0.0706 E-score. As for CATTTGGC, the binding signal is -0.00447 E-score. As for ATAGTGTA, the figure is 0.322 E-score. Next, CATCTTAA: 0.196 E-score; ACCTGCAG: 0.0101 E-score; TTACTGAA: 0.255 E-score. As for CCGGGTCA, the figure is -0.234 E-score; as for AGATTAGG, 0.0873 E-score; as for AGCGTCCC, -0.278 E-score. For AGCGCCTC, the binding signal is -0.268 E-score. Next, TACATAAA: 0.313 E-score; AGCGTTAC: 0.0864 E-score.

The sequence AATGGTAA came in with a binding signal of 0.269 E-score. Next, CCCGCTTC: -0.142 E-score; CTAACCTC: -0.188 E-score. Take ATCGCGAG: the binding signal is -0.0466 E-score. Next, AGCTATAG: 0.283 E-score.

Regarding AACCAGGC, the binding signal was -0.285 E-score. Next, TGATTAAA: -0.0452 E-score; CTGAGGCC: -0.255 E-score. As for GAGTCACC, the figure is -0.287 E-score; as for AACCATCA, 0.0264 E-score; as for CGATATCG, 0.243 E-score. Next, ACTACGGG: 0.00457 E-score; AAACGATC: 0.0216 E-score. CCTTCAAC had a binding signal of 0.0335 E-score.

In the case of AAGCGACC, the binding signal was -0.223 E-score. As for AGATCCAC, the figure is -0.0578 E-score; as for CCACGGGG, -0.307 E-score; as for GGACAAAA, -0.154 E-score.

For AGGAGGAT, the binding signal was -0.148 E-score. Next, CTCAATGC: -0.156 E-score.

On to CAGAAATG, for which the binding signal was found to be 0.116 E-score. CTCTAGTA returned a binding signal of 0.119 E-score. The sequence AGGAGCAC registered a binding signal of -0.361 E-score. As for AAACGGAC, the figure is -0.0109 E-score; as for ACCCTGCG, -0.29 E-score; as for CCCTTATA, -0.188 E-score. Next, CCAAAGCC: -0.341 E-score; CCGTTGCA: 0.0135 E-score. CTGTCATA had a binding signal of 0.00125 E-score.

In the case of AACCTCCC, the binding signal was -0.341 E-score.

Consider GTCAACTA, for which the binding signal came out at 0.0259 E-score. Sequence AGGCGAAG displayed a binding signal of -0.126 E-score. As for CTGAGTTC, the figure is -0.0518 E-score. In the case of ACGGAAGA, the binding signal came to 0.00608 E-score. Next, AACGTATA: 0.246 E-score; ACCCAGAA: -0.0748 E-score. As for CGCTAAGC, the figure is -0.208 E-score; as for CAGCGCGG, -0.234 E-score. As for GACGGCTA, the figure is -0.342 E-score; as for AGAACTCT, 0.0641 E-score.

Turning to AAGGCAAT, the binding signal is -0.0531 E-score. As for TGACTACA, the figure is 0.197 E-score.
